From paper PMC4336329 (PLoS ONE, 2015)
Screen size: about 310,000 compounds; about 14,000 (4.5%) showed an effect of 50% or more. The effect is printed as a negative number. This is one part of the list.

These molecules were tested against human ether-à-go-go-related gene (hERG) potassium channel (human, UniProt Q12809) (assay: primary screen, population patch clamp on CHO cells stably expressing hERG).
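Also: peak tail current of the secondary pulse compared with the same well before compound.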

Sequence of human ether-à-go-go-related gene (hERG) potassium channel (Q12809 whole entry, looked up): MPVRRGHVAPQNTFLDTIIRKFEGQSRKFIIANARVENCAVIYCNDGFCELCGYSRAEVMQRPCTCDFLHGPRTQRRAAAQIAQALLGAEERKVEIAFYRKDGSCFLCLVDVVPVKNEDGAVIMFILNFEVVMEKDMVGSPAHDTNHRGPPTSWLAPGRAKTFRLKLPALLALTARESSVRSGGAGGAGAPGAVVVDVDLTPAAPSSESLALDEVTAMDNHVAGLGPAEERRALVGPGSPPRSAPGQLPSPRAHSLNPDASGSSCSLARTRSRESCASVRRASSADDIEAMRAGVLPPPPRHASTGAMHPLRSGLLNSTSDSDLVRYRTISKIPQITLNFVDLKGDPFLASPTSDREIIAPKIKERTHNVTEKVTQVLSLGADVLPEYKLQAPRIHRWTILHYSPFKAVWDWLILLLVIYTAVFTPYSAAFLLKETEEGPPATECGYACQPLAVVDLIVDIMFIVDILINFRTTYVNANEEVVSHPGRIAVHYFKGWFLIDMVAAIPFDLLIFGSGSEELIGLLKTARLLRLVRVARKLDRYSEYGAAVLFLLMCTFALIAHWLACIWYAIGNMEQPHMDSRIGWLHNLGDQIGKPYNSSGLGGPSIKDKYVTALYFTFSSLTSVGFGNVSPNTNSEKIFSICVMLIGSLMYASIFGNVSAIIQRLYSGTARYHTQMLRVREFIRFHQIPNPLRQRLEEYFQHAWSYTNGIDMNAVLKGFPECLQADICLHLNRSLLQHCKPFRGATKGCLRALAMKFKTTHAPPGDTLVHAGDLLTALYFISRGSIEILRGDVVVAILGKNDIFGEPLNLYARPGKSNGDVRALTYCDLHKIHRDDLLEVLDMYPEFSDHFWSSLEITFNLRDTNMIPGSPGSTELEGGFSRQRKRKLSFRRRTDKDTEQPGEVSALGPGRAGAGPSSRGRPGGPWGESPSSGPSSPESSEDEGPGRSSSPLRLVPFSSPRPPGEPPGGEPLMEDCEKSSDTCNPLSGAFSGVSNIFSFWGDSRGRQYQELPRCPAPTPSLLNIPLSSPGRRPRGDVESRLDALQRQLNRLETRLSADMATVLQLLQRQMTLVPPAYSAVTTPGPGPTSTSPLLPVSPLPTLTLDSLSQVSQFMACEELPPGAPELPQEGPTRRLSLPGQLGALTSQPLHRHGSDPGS

SMILES	hERG current change (%, negative = inhibition) at 10uM
O=C(CCCN1C(=O)/C(=C/c2cccs2)SC1=S)Nc1ccccc1O	15.3%
CCn1cc(CN2CCC(n3nccc3NC(=O)CCCc3ccccc3)CC2)c(C)n1	-28.4%
CCOc1ccccc1C1CC(=O)Nc2c1c(=O)n(C)c(=O)n2C (stereo not shown)	7.34%
COc1ccccc1NC(=O)CSc1nnc(CC(=O)Nc2ccccc2F)n1C	11.4%
CC(C)(Oc1ccc(Cl)cc1)C(=O)Nc1ccc2oc(-c3ccncc3)nc2c1	4.89%
CCC(CO)NCc1ccc(-c2ccccc2)cc1.Cl (stereo not shown)	-31.8%
Cc1ccc(NC(=O)Cn2c(=S)[nH]c3ccccc32)cc1	19.7%
Cc1ccc(S(=O)(=O)Nc2nc3ccccc3nc2NCC2CCCO2)cc1C (stereo not shown)	-32.5%
O=C(NNC(=O)c1ccc(-n2cncn2)c([N+](=O)[O-])c1)c1cccc(Cl)c1	-26.3%
COc1ccc(NC(=O)CC(Cc2ccccc2)C(=O)O)cc1 (stereo not shown)	5.21%
C[C@H](NC(=O)N1CCn2c1nc1ccccc12)C(=O)NCc1ccc(F)cc1	-29.6%
CCOC(=O)c1c(CN2CCCCC2)n(C)c2cc(Br)c(O)c(CN(C)C)c12	-19%
O=C(O)C(=O)O.O=C(c1ccco1)N1CCN(Cc2cccc3ccccc23)CC1	-24.3%
Cc1ccc(OCCOC(=O)c2c(-c3ccccc3)noc2C)cc1	7.59%
COc1ccc(C2=C(Nc3ccc(C)cc3)c3ccccc3C2=O)cc1	3.57%
Cc1ccc2nc(-c3sc4nc(C)cc(C)c4c3N)[nH]c2c1	8.93%
O=C(CC1(O)C(=O)Nc2ccccc21)c1cccc(-n2cccc2)c1 (stereo not shown)	26.1%
COc1ccc(CCCNC(=O)C2CCC(=O)N(Cc3ccccc3F)C2)cc1 (stereo not shown)	-25.9%
COC(=O)c1ccc(S(=O)(=O)N2CCOCC2)o1	31.4%
O=c1cc[nH]c2ccc([N+](=O)[O-])cc12	2.42%
CC(C)N1CC2(c3ccccc3)CN(C(C)C)CC(c3ccccc3)(C1)C2=O	-48.4%
O=C(Nc1cc(C(F)(F)F)ccc1N1CCCC1)C1CCCO1 (stereo not shown)	-12%

SMILES	hERG current change (%, negative = inhibition) at 10uM
CCCc1c(OCCCOc2ccc(OCC(=O)O)cc2)ccc(C(C)=O)c1O	21.8%
O=C(NC1CC2CCC(C1)N2C(=O)NCc1ccccc1)NC12CC3CC(CC(C3)C1)C2 (stereo not shown)	16.1%
COc1cccc(-n2c(SCc3cc(=O)oc4cc(O)c(O)cc34)nc3ccccc3c2=O)c1	-11.3%
O=C(Nc1ccccc1C(=O)Nc1ccccn1)c1cccc([N+](=O)[O-])c1	-58.2%
C/C=C/CSc1nc2c(c(=O)[nH]c(=O)n2C)n1C(C)C	-1.61%
COc1cc(C2C(C#N)=C(N)Oc3cc(N)ccc32)cc(OC)c1OC (stereo not shown)	12.5%
COc1ccc(CC(=O)Nc2ccc(S(=O)(=O)N3CCN(C)CC3)cc2)cc1	10.5%
Cc1ccc(/C=N\Nc2cn[nH]c(=O)c2Cl)cc1	-9.41%
CCCCn1c(=O)[nH]c(=O)c2c1nc(-c1cc3c(cc1Br)OCO3)n2C	-18.1%
COc1ccc(C2NC(=S)N3C(c4ccc(OC)cc4)NC(=S)N23)cc1 (stereo not shown)	16.2%
O=C(Nc1ccccc1C(=O)OCC(=O)N1CCc2ccccc2C1)c1ccco1	-30.9%
CCn1c(CSc2nc(C)cc(C)n2)nnc1SCC(=O)Nc1nc(-c2ccccc2)cs1	-9.09%
COc1cccc(CNC(=O)CCc2nnc(C3CCCCC3)o2)c1	-0.274%
N/C(=N\OC(=O)c1cccc([N+](=O)[O-])c1)c1ccccn1	16.7%
Cc1ccccc1C(=O)Nc1cccc(C(=O)N/N=C/c2ccc3c(c2)OCO3)c1	-5.69%
Cc1occc1-c1nnc(SCC(=O)NC2CC2)n1C(C)C	19.2%
O=C(c1nn2c(C(F)(F)F)cc(-c3ccc(F)cc3)nc2c1Cl)N1CCOCC1	-10.2%
CCCCn1c(N)c(N(CC)C(=O)c2ccc(Cl)c([N+](=O)[O-])c2)c(=O)[nH]c1=O	26%
O=C(N/N=C/c1c(F)c(F)c(F)c(F)c1F)c1ccc(Cn2cc(Br)cn2)o1	-15.9%
CCOc1ccc(NC(=O)c2ccc3c(SCC(=O)O)c4c(nc3c2)CCCC4)cc1	18.6%
CC(=O)c1nc(N2C(=O)CC(Cc3ccccc3)C2=O)sc1C (stereo not shown)	-10.2%
